# Test results taken from PubChem BioAssay AID1347055 (National Center for Advancing Translational Sciences (NCATS), 2019).
# About 120 (0.22%) of roughly 54,000 compounds were called active. The shares of active, inactive and inconclusive entries below differ from those in the screen. Calls come from the whole dose curve; as a rule, active = well fitted inhibition curve with a large enough effect; inconclusive = small, poorly fitted or top-dose-only effect, or effect the other way; inactive = flat fitted curve, though single readings scatter. Potencies of inconclusive entries are left out as doubtful fits.
# Target: Fumarate hydratase, mitochondrial (Homo sapiens) (UniProt P07954)
# Assay: Identification of activators of human fumarate hydratase by quantitative high-throughput screening; note: the screen sought activators but most active calls are inhibition curves; nearly all actives have a fitted effect of over 45% in size
# Settings: FH coupled MDH/diaphorase resazurin fluorescence, 15 min; activity change, negative = inhibition: at 79.9 µM (top of the series)
# % is set by controls: 0 for no effect and ±100 for the full control effect; potency is the fitted concentration of half-maximal effect; tags give direction and shape of the fitted curve.
# Chain of UniProt P07954 (P07954 whole entry, looked up): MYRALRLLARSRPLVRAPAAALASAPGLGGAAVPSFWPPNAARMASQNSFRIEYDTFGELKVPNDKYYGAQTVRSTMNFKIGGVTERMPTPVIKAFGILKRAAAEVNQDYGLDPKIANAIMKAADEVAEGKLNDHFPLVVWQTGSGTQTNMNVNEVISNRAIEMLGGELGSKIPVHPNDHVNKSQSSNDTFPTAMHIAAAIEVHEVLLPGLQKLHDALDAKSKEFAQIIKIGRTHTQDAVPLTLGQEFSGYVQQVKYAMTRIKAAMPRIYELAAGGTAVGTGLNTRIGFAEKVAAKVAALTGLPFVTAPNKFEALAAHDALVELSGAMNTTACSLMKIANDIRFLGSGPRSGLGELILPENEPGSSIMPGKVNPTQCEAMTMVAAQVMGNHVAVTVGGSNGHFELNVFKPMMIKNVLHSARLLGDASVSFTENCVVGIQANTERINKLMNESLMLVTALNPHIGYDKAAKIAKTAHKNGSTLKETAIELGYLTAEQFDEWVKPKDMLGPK
Compound,Potency,"activity change, negative = inhibition"
Cc1ccc(Cc2c(C)nc3nc(SCC(=O)NC(C)c4ccccc4)nn3c2C)cc1 (configuration not stated),"inconclusive [inhibitor, single point]",
O=C(COc1ccc(Cl)cc1)OCc1cc(=O)n2nc(-c3cccs3)sc2n1,"inconclusive [activator, single point]",
CC(C)n1c(=N)c(C(=O)NCc2cccnc2)cc2c(=O)n3ccccc3nc21,,inactive: 4.56%
CCOC(=O)c1cc(-c2ccccc2)n(-c2cccc(C(=O)Nc3cccc(F)c3)c2)c1C,"inconclusive [inhibitor, partial curve, poor fit]",
COc1ccc(OC)c(-c2cc(C(=O)NCCc3ccccc3)c3c(-c4ccc(C)cc4)[nH]nc3n2)c1,"inconclusive [inhibitor, single point]",
Cc1ccc(N2C(=O)CSC23C(=O)N(CC(=O)NCCc2ccccc2)c2ccccc23)cc1C (configuration not stated),,inactive: -18.1%
CCOc1ccccc1NC(=O)c1c(NC(=O)COc2ccccc2)sc2c1CCCCC2,"inconclusive [inhibitor, partial curve, poor fit]",
CCCC(=O)C1CCN(c2ncnc3c2CN(C(=O)c2ccc(-c4ccccc4)cc2)CC3)CC1,,inactive: -0.289%
CC(C)CS(=O)(=O)c1oc(-c2ccc(F)cc2)nc1S(=O)(=O)c1ccccc1,"inconclusive [inhibitor, single point]",
CCCCOc1ccc(CNC(=O)c2cc3n(n2)CCCN(Cc2ccc(C)cc2)C3=O)cc1,,inactive: 4.2%
Cc1noc(C)c1S(=O)(=O)Nc1ccc(C(=O)Nc2ccc(Br)cc2)cc1,"inconclusive [inhibitor, partial curve, poor fit]",
CCCn1c(=N)c(C(=O)NC2CCCC2)cc2c(=O)n3cccc(C)c3nc21,,inactive: 4.1%
CC(O)CO[C@@H]1O[C@H](CO)[C@@H](O)[C@H](O)[C@H]1O (some centres not stated),,inactive: -3.69%
CCOC(=O)c1ccc(NC(=O)CN2c3ccccc3S(=O)(=O)c3ccccc32)cc1,"inconclusive [inhibitor, partial curve]",
Clc1ncoc1-c1c[nH]c2ccccc12,,inactive: -4.44%
CCn1c(=O)c2cc(C(=O)N(CC(C)C)CC(C)C)sc2c2ccccc21,"inconclusive [inhibitor, single point]",
CCCCCCCC/C=C\CCCCCCCC(=O)NCCO,"inconclusive [inhibitor, single point]",
COc1ccccc1NC(=O)CSc1nnc2c3ccccc3n(C(C)C)c2n1,"inconclusive [inhibitor, partial curve]",
CCOC(=O)N1CCN(c2ncc3c(n2)CC(c2ccccc2O)CC3=O)CC1 (configuration not stated),,inactive: -15.4%
CCc1ccc(NC(=O)CSc2cn(CC(=O)N3CCCC3)c3ccccc23)cc1,"inconclusive [inhibitor, partial curve]",
COc1cccc(C2C(C(=O)Nc3ccccc3OC)=C(C)Nc3nc4ccccc4n32)c1 (configuration not stated),"inconclusive [inhibitor, partial curve, poor fit]",
CCN(CCN(C)C)C(=O)CNCc1cc(C(N)=O)ccn1,"inconclusive [activator, partial curve]",
CCN(CCNC(=O)Nc1ccccc1Br)c1cccc(C)c1,,inactive: -3.56%

Compound,Potency,"activity change, negative = inhibition"
Cc1ccc(NCc2nc3ccccc3n2CCOc2ccccc2C)cc1,"inconclusive [inhibitor, single point]",
COC(=O)c1cc(NC(=O)c2cnc(SC)nc2-c2ccccc2)cc(C(=O)OC)c1,,inactive: -19.3%
Cc1ccc2nc(-c3c[nH]c4ccccc34)c(Nc3ccccc3)n2c1,"inconclusive [inhibitor, partial curve, poor fit]",
COc1c2c(c(C)c3c1C(=O)OC3)OC1(C)CC(O)C(C(C)(C)O)C(C)(CCC(=O)O)C1C2 (configuration not stated),,inactive: 3.22% [at 53.3 µM]
O=c1[nH]c(=S)[nH]c(-c2ccccc2)c1Cc1c(O)ccc2ccccc12,active: 20 µM,
COc1ccncc1C(=O)NC(=O)Nc1ccc(-c2ccccc2)c(C(F)(F)F)c1,,inactive: 0.159%
CCOC(=O)c1ccc(Nc2nc(C(=O)OCC)nc3ccccc23)cc1,,inactive: -17.4%
Cc1cc(C)c(S(=O)(=O)NCC(c2ccc(N(C)C)cc2)N2CCc3ccccc32)c(C)c1 (configuration not stated),"inconclusive [inhibitor, partial curve, poor fit]",
CCOc1ccccc1CNC(=O)CSc1n[nH]c(-c2ccccc2Cl)n1,"inconclusive [inhibitor, partial curve]",
Oc1cccc(Nc2ccnc3[nH]c4ccccc4c23)c1,,inactive: -15.3%
CCN(CC)CCOc1ccc(C(O)(Cc2ccc(Cl)cc2)c2ccc(C)cc2)cc1 (configuration not stated),,inactive: -13.3% [at 53.3 µM]
Cc1cccc(N(C)C(=O)C2CCN(S(=O)(=O)c3cccc4nonc34)CC2)c1,,inactive: 5.63%
COc1ccc(/C=C/C(=O)Nc2ccc(Cl)c(Cl)c2)cc1OC,"inconclusive [inhibitor, single point]",
O=C(Cn1c(=O)oc2cc(S(=O)(=O)NCc3ccccc3)ccc21)NCc1ccc(F)cc1,,inactive: -1.72%
CC(=O)O[C@@](C)(C(=O)/C=C/C(C)(C)O)[C@H]1[C@H](O)C[C@@]2(C)[C@@H]3CC=C4[C@@H](C=C(O)C(=O)C4(C)C)[C@]3(C)C(=O)C[C@]12C,,inactive: -0.282% [at 53.3 µM]
O=C(CSC1=Nc2ccccc2C2=NC(CCC(=O)NC3CCCCC3)C(=O)N12)Nc1cccc(Cl)c1 (configuration not stated),"inconclusive [inhibitor, partial curve, poor fit]",
Oc1cccc(Nc2nc(-c3ccccc3)nc3ccccc23)c1,"inconclusive [inhibitor, single point]",
O=S(=O)(Nc1c(F)cccc1F)c1ccc2c(c1)OCCO2,,inactive: -1.6%
Cc1ccc(C2c3[nH]c4ccccc4c3CCN2C(=O)c2ccc(N(C)C)cc2)cc1 (configuration not stated),"inconclusive [inhibitor, partial curve]",
CCOC(=O)c1cc(-c2ccccc2)nn1Cc1ccccc1,"inconclusive [inhibitor, partial curve, poor fit]",
Cc1ccc(C)c(N2CCN(C(=O)C3CCN(Cc4nc(-c5cccc(Cl)c5)oc4C)CC3)CC2)c1,"inconclusive [inhibitor, single point]",
Cc1cccc(N2CCN(C(=O)c3ccc(NC(=O)c4nsc5ccccc45)cc3)CC2)c1C,"inconclusive [inhibitor, partial curve, poor fit]",
COc1ccc(NC(=O)CCN2CCN(CCO)CC2)cc1,,inactive: 9.05%

Compound,Potency,"activity change, negative = inhibition"
O=C(Cn1cc(S(=O)(=O)Cc2ccccc2F)c2ccccc21)NCc1ccccc1Cl,"inconclusive [inhibitor, partial curve, poor fit]",
CCCSc1ncc(Cl)c(C(=O)Nc2c(C(=O)c3ccc(F)cc3)oc3ccccc23)n1,,inactive: -2.36%
CCOC(=O)c1c(C)[nH]c(C)c1S(=O)(=O)N1CCN(c2ccc(Cl)cc2)CC1,,inactive: -32.6%
O=C(COc1ccc(F)cc1)NC1CC(=O)N(c2ccc3c(c2)OCCO3)C1 (configuration not stated),,inactive: -0.379%
O=C(CSCc1cnn(-c2ccccc2)c1-n1cccc1)NCc1ccccc1Br,,inactive: -11.3%
O=C1c2[nH]nc(-c3ccccc3O)c2C(c2ccc(Cl)cc2)N1CCc1ccccc1 (configuration not stated),"inconclusive [inhibitor, single point]",
COC(=O)C1=CO[C@@H](O[C@@H]2O[C@H](CO)[C@@H](O)[C@H](O)[C@H]2O)[C@@H]2C(CO)=CC[C@]12O,,inactive: 8.11% [at 53.3 µM]
CC1CCN(S(=O)(=O)c2ccc3nc(Nc4cccc(C(F)(F)F)c4)ccc3c2)CC1,"inconclusive [inhibitor, single point]",
CCOc1ccc(/C=C/c2nc3ccccc3n2S(=O)(=O)c2cccc(Cl)c2)cc1,,inactive: -17%
Cc1cc(C)cc(NC(=O)CCS(=O)(=O)c2ccc3c(c2)oc(=O)n3C)c1,"inconclusive [inhibitor, single point]",
COC(=O)c1ccc2c(=O)n(CCCCCC(=O)NC(C)C)c(=O)[nH]c2c1,,inconclusive: -31.4% [inhibitor]
CC(=O)N1CCN(c2ccc(OC[C@H]3CO[C@](Cn4ccnc4)(c4ccc(Cl)cc4Cl)O3)cc2)CC1,inactive,
Cc1cccc(C)c1NC(=O)CN1C(=O)c2ccccc2Sc2ncccc21,,inactive: -3.8%
CCn1cc(C(=O)Nc2ccc(C(C)C)cc2)c2cc(OC)c(OC)cc2c1=O,"inconclusive [inhibitor, partial curve]",
Cc1ccc2cc3cc(C(=O)N(C)c4ccccc4C)oc3nc2c1,"inconclusive [inhibitor, partial curve]",
N.N.N.N.N.N.N.N.N.N.N.N.N.N.O.O.[Cl-].[Cl-].[Cl-].[Cl-].[Cl-].[Cl-].[Ru+4].[Ru+5].[Ru+5],"inconclusive [inhibitor, single point]",
Nc1ccc2oc(Cc3ccc(Cl)cc3)nc2c1,"inconclusive [inhibitor, partial curve, poor fit]",
CC(=O)Nc1ccc(S(=O)(=O)N(Cc2ccccc2)Cc2ccccc2)cc1,"inconclusive [inhibitor, single point]",
COc1cccc(-c2ccc3c(N)c(C(=O)Nc4ccccc4C)sc3n2)c1,"inconclusive [inhibitor, partial curve, poor fit]",
Cc1ccc(NC(=O)Cn2c(=O)ccc3cc(S(=O)(=O)N4CCCC4)ccc32)cc1N(C)C,"inconclusive [inhibitor, single point]",
O=C(c1ccc(Cl)cc1)c1cn(Cc2ccccc2)c2cc3c(cc2c1=O)OCCO3,"inconclusive [inhibitor, partial curve, poor fit]",
